In the supplement of paper PMC3334620:
Whole data set: some 33,000 sequences, median “E-score (-0.5 to 0.5)” near -0.056, cut for the highest 2% near 0.38. The list shows a part of the results.

These sequences were tested against Stb4 (UniProt P50104) (assay: PBM E-score (8-mer binding enrichment) (E-score (-0.5 to 0.5)); higher = stronger / more preferred TF binding; most listed sequences are background and not binding sites). Conditions: protein concentration: 200 nM; construct: GST-DNA-binding domain.
How it was run: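 Universal all-10-mer Agilent arrays, double-stranded by primer extension on fresh or once-stripped slides, were probed with about 100-200 nM GST-tagged yeast transcription factors made by PURExpress. Fluorescent anti-GST detected bound protein, and masliner normalised the scans. E-scores from the Universal PBM Analysis Suite were given to each ungapped eight-base word pooled with its reverse complement.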

Sequence | PBM E-score
ATCAACTA | -0.177
CAAGAGGA | -0.276
AAAGCAGA | -0.125
GACCAACC | -0.116
ATCTTCTA | 0.0919
AAGGGTCA | -0.166
ACGGAAGC | 0.337
CACCCTGC | -0.0927
GCATTCCC | 0.0931
TACCTCAA | -0.105
AGACCTCC | 0.00922
CAAGCATC | 0.0278
GTAAGTTA | -0.0587
ATCTGGTA | -0.113
ACGTACGC | -0.157
ACAAGGAC | -0.274
CGTTATTA | 0.0429
CTCGTCTC | -0.0768
AGGGAATA | 0.0561
ATGCATGG | -0.0186
TATATATA | 0.125
GAGAATCA | -0.0733
TATCCGCA | 0.408
GATGTCAA | -0.0424
ATTCCAGA | 0.0443

Sequence | PBM E-score
CATGGGGA | -0.132
CATGCTCC | -0.133
AGTGCGGG | 0.161
AGTACTAG | -0.119
CGACCAAG | -0.184
TGGAAAAA | -0.0066
AGAACAGA | 0.0282
CTTTTGAC | -0.167
CTCTTCAG | -0.229
GAAGTGGC | 0.0778
CCTACGGA | 0.144
GCCGTTTA | 0.0517
CGTTTGTA | 0.0503
ATGTTCAC | -0.1
AGGCGCTG | -0.0579
CCGACATC | 0.301
CGGTGAAC | 0.0945
ACGTCACA | -0.2
CAGCTAGG | -0.26
CACGTCTG | -0.203
CGATATAG | -0.0271
GCGGAACA | 0.335
GGGCGACC | -0.114
AAATACAC | -0.134
CAACTGCA | -0.243

Sequence | PBM E-score
ACCCTTAC | -0.188
CGATAAAA | 0.299
CCTCAGGC | -0.123
AACCTTGC | -0.151
CTTTCAAC | -0.047
AGGGTTAG | -0.308
CGGACTCC | 0.155
GTCGTCCA | -0.096
ACATATGA | -0.16
AAGACCGG | 0.113
CACGATCG | 0.0118
AATGGGAC | -0.211
GTGAGCAC | -0.115
CAGGTGCA | -0.175
CAAATCGG | 0.353
CAACATAA | -0.0466
AGCGCCCC | 0.0306
CTTTGTTA | -0.0279
CACGCTCG | 0.119
AGTGCAAA | -0.217
ACCCGTCA | 0.168
ATTATGAC | 0.0214
CGGGACCC | 0.318
CTTGAGGA | 0.0661
GTGTCGAA | -0.0811

Sequence | PBM E-score
CCACCACA | 0.00458
AACAAAGG | -0.118
CCGACTTA | 0.319
AGCAGGAG | -0.0806
ATTGTGTA | 0.0524
AGAGTCAG | -0.0492
AGTGGGTG | -0.0397
AACCCTGG | -0.176
CTTTTTGA | -0.151
CCTTGACA | -0.2
ACTTAGCC | -0.0828
CGCTGTTA | 0.0465
AATGTGTG | -0.0954
ACATATCT | -0.0348
CACACTTC | 0.0113
CCCGTCAA | 0.181
AGTAGACA | -0.035
CATTGCCG | 0.258
AAACAGCT | -0.0795
GAAGCAGA | -0.217
GAAGCCAC | 0.104
GATGAATA | 0.077
AGGTACGA | -0.0929
AACCTAAA | 0.099
AGATGATA | -0.0663

Sequence | PBM E-score
CAGCGCGC | -0.173
AACGACTC | -0.204
ACCGGCAG | 0.192
CTGGAAAC | -0.136
GCTACACA | -0.153
TAGAGCCA | -0.359
CATGAGTC | -0.171
AATGAATC | -0.0935
CACTTCTG | -0.238
GCTACGAC | -0.0399
AGCTGCTA | -0.221
CACTAATC | 0.123
CATTTTTA | 0.0281
AATCCTGA | -0.162
CATGTTCA | -0.345
CCCTTACA | -0.0902
CCGAGTGC | 0.372
CACGAATC | -0.0352
CGTATACA | -0.0455
ATCGTTCG | 0.0667
GAGCCCTA | -0.0185
ATTAGTAA | 0.076
GTTCTTGA | -0.19
GCGTCGAC | -0.155
CATCCATC | -0.115

Sequence | PBM E-score
CTACATTC | 0.0539
GGAAAACC | 0.151
GCCCGTCA | 0.157
CTATTCCC | 0.0798
ATTGGGAA | -0.108
GACGTTCA | -0.0896
GCGGCCCA | 0.0648
TGCTTTAA | -0.127
AGCTTTGC | 0.0466
AAGTCCCG | 0.362
AAATTGTC | 0.0348
ACGAGAAA | -0.0518
AAGTTAAT | -0.0994
ACATATCC | 0.0644
ACTGTTCC | 0.141
GAGCCTCC | -0.0185
TAGATGCA | -0.222
TGCGGAAA | 0.299
AGTCGCGG | 0.0578
CACTAGAG | -0.16
ACGTTACA | -0.325
TCTCGAAA | -0.251
CGGGCTAG | 0.136
GGTGGAAC | -0.148
AACAGCGG | 0.097

Sequence | PBM E-score
TACTCAAA | -0.108
CCGTGTTC | 0.236
CCAGCCTA | -0.221
ACCGATCA | 0.231
ACTTTGCA | -0.17
ATTGGTAC | -0.0858
AACGAATC | 0.143
TACATGCA | -0.209
CCCTTCCA | -0.11
ACGATATC | -0.0902
GATTGAAC | -0.0809
ACCCAACT | -0.227
AATTGTTA | -0.107
CAATAAAC | 0.0616
AACCCCGC | -0.0105
CAAAAACA | -0.0724
AATGCTCG | 0.031
CCCCGCAA | 0.0416
CCACCTTC | -0.0877
GGTTCGAA | -0.0143
CAGTGAGG | -0.244
CCTCTCAA | -0.0748
AGTCCCAT | -0.202
TCTGTCCA | 0.0331
CGGATTTC | 0.318

Sequence | PBM E-score
AGAGTTTC | 0.0683
GAACCCTA | -0.0858
CAGGAGTA | -0.0722
AAATCTCG | 0.202
TCAGGGGA | -0.27
GTCCGCAC | -0.045
CAATTGCA | -0.0781
GATGAGCA | -0.0393
ACGGACGT | 0.0696
CACAAAGC | -0.102
AATAGAAA | -0.0832
ACAAGCAG | -0.159
CACTTGCG | -0.102
ATGTGCGC | -0.117
AGGCGTAG | -0.15
CCCGACCA | 0.282
CGCTCGGC | 0.412
CAGTGGAG | -0.0704
CGGCTTCA | 0.23
TATCTACA | 0.0195
CCGCCATC | 0.0682
GAGGTAAC | -0.0452
ACAAGAAC | 0.101
GTTGATTA | 0.0444
CAGCACAA | -0.0332

Sequence | PBM E-score
ACGGGGCT | -0.0557
CTAATCAG | 0.00472
ATACTGTG | -0.131
ATTACTCG | -0.0138
ATCATTAC | -0.0186
ATAGTCGC | -0.076
CAACCCTA | -0.0513
CGTGGCTC | -0.169
ATGTGAGA | -0.03
ACCACTCA | -0.272
CCGCATTC | 0.177
CCTCGCCC | -0.0701
AAGCCAGC | -0.154
CCGGCCTA | 0.167
CTTCTATC | -0.0159
CGCGGCCA | 0.0292
AGAACTTG | -0.161
AATGGCTG | -0.0957
GTAGCTTA | -0.238
CATCCTCC | 0.0552
ATACTCAC | -0.04
CGTACATC | 0.0586
ATGAGGGG | -0.126
GAGTAAGC | -0.0417
ACACATCG | -0.144

Sequence | PBM E-score
CATAAACG | -0.0894
ATAACGGC | 0.108
CTGTCGCA | -0.0387
ATTGCTTA | -0.0483
ACCAGAAT | -0.109
ATTTGCAC | -0.265
CAGCTTAG | -0.18
GGCGTCAA | -0.0556
ACCCGCAT | 0.275
ATTTTGTG | 0.0933
GCCCGCCA | 0.143
CCACAGCG | -0.122
GCACATGC | 0.0181
GATTAGAC | 0.0134
CCGGATTA | 0.319
AGCGGACC | 0.101
GGTGCTAC | -0.152
CTCTACAA | -0.115
GGGTCAGA | -0.126
AGATACAA | -0.131
CACCGAGA | 0.222
CCAACTGC | -0.0394
AAGCGGGA | 0.181
ACAGCGGA | 0.123
AACCGCAC | -0.0246

Sequence | PBM E-score
CCTTGATC | -0.0616
CGCCCCAG | 0.011
ACATGAAG | -0.122
CATCATTA | 0.0196
CACAATGG | -0.0734
GAGCATGC | -0.106
AGCATATA | 0.0336
AGCGGCGG | 0.21
TTATATAA | 0.0856
CTAATATC | 0.0519
GCCAGATA | -0.0105
CCGTCAGC | 0.162
ACCATCAA | -0.197
CTCACTAA | -0.092
CGCTCAGA | -0.0204
CCTTCGGA | 0.474
AACTGCCA | -0.263
AGCGCATA | -0.108
CTTAGGTC | 0.0896
ATCCCACG | -0.0952
AGCATACG | -0.0677
CCTATAGC | -0.281
ACGTCATA | -0.0342
GATGGCAA | 0.061
GGACGGAC | 0.232

Sequence | PBM E-score
AGTCCTTG | -0.132
CGCCGCTA | 0.0587
AGTGCCCA | -0.0734
TAAAGCTA | -0.339
GCAAGAAA | 0.0868
ATCGTATC | 0.0416
AACTGCCG | 0.342
CGCAAGAA | 0.0756
CCGAGACG | 0.41
AATACCGG | 0.307
GCACAGTA | -0.152
CGACTTTC | 0.119
CATGGGAC | -0.24
AACGGTCA | 0.0935
GCAGGGCC | -0.107
TAGATACA | -0.29
AAGGCGTC | -0.0387
GTCGAGGA | -0.239
ACCATGCC | 0.0929
AACCACAG | -0.177
CAGGCCGG | 0.0967
GCCGTACC | 0.283
ACGAAATA | -0.111
ATCGTCAG | -0.252
ATCACTGA | -0.231

Sequence | PBM E-score
CTACTGCA | -0.329
CGCCTGTC | -0.141
CAGTCAGG | -0.175
CAAGAGAG | -0.164
GAAATATA | 0.147
CCTCGCAG | -0.233
ACGCCAAT | -0.0738
ATTGTGAG | -0.0285
AATAGACG | -0.0479
CAGTCCGA | 0.308
CCTGCCCA | -0.093
CCGTGGAG | 0.155
CTGTAAAG | -0.206
CATGCGAA | -0.00765
CCCTCATC | -0.0808
CAGAAACA | -0.174
GCAAACTA | -0.232
AATCCGAT | 0.368
CCAGTGTC | -0.166
GGACTGAA | 0.0777
ACGGAATG | 0.277
AGCGGTTC | -0.0178
ACACCTAA | -0.0971
CTAAATGA | -0.203
CCGCGGGC | 0.243

Sequence | PBM E-score
AAGCCCTC | -0.11
TCATAAAA | -0.0867
AAAGTGGT | -0.105
ACACATAC | -0.126
ATCAAGCC | -0.0912
CAAAACGG | 0.0905
AAACCGAC | 0.185
GCTCTTCC | 0.163
CCTAACCG | 0.13
ATCTCTGA | -0.221
ATTCATCG | -0.0143
ACACTGAG | -0.128
CGTGCCGC | 0.0918
ACTTGAAG | -0.201
AGAATCAT | -0.207
CGGCCTTA | 0.152
ACAAGTGC | -0.181
CTCGAGCA | -0.0413
CTTCATCC | 0.136
